# Assay results: the supplement of paper PMC8728848
# The other results are listed elsewhere or left out.
# Columns and labels:
# Assay in all cases: glycan array binding signal (z-score within array); higher = stronger binding
# Conditions in all cases: glycan notation: IUPAC condensed, linker removed
# [1] = target: Gal(b1-4)GlcNAc(b1-6)[Gal(b1-3)]GalNAc
# How it was run: (§1)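 Arrays were curated from the Consortium for Functional Glycomics database, 3228 in total, and kept only where the protein sequence was available. Binding is expressed as a within-array Z-score. This score was averaged across arrays of the same protein sequence at different concentrations or buffers and across linkers, and negative values can be read as non-binding.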
# Gal3S(b1-3)GalNAc = target: Gal3S(b1-3)GalNAc
# How it was run: as §1
# Gal3S(b1-3)GlcNAc = target: Gal3S(b1-3)GlcNAc
# How it was run: as §1
# [2] = target: Gal3S(b1-3)[Fuc(a1-4)]GlcNAc
# How it was run: as §1
# Gal3S(b1-4)Glc = target: Gal3S(b1-4)Glc
# How it was run: as §1
# Gal3S(b1-4)Glc6S = target: Gal3S(b1-4)Glc6S
# How it was run: as §1
# Gal3S(b1-4)GlcNAc = target: Gal3S(b1-4)GlcNAc
# How it was run: as §1
# Gal4S(b1-4)GlcNAc = target: Gal4S(b1-4)GlcNAc
# How it was run: as §1
# Gal6S(b1-4)Glc = target: Gal6S(b1-4)Glc
# How it was run: as §1
# Gal6S(b1-4)Glc6S = target: Gal6S(b1-4)Glc6S
# How it was run: as §1
# GalNAc(a1-3)Gal = target: GalNAc(a1-3)Gal
# How it was run: as §1
# GalNAc(a1-3)GalNAc = target: GalNAc(a1-3)GalNAc
# How it was run: as §1
# GalNAc(b1-3)GalNAc = target: GalNAc(b1-3)GalNAc
# How it was run: as §1
# GalNAc(b1-4)GlcNAc = target: GalNAc(b1-4)GlcNAc
# How it was run: as §1
# Glc(a1-4)Glc = target: Glc(a1-4)Glc
# How it was run: as §1
# Glc(b1-4)Glc = target: Glc(b1-4)Glc
# How it was run: as §1
# Glc(b1-6)Glc = target: Glc(b1-6)Glc
# How it was run: as §1
# [3] = target: GlcNAc(b1-2)Gal(b1-3)GalNAc
# How it was run: as §1
# GlcNAc(b1-3)Gal = target: GlcNAc(b1-3)Gal
# How it was run: as §1
# [4] = target: GlcNAc(b1-3)Gal(b1-3)GalNAc
# How it was run: as §1
# GlcNAc(b1-3)Gal(b1-4)Glc = target: GlcNAc(b1-3)Gal(b1-4)Glc
# How it was run: as §1
# [5] = target: GlcNAc(b1-3)Gal(b1-4)GlcNAc
# How it was run: as §1
# [6] = target: GlcNAc(b1-3)[GlcNAc(b1-6)]GalNAc
# How it was run: as §1
# [7] = target: GlcNAc(b1-3)[GlcNAc(b1-6)]GlcNAc(b1-4)GlcNAc
# How it was run: as §1
# [8] = target: GlcNAc(b1-4)GlcNAc(b1-4)GlcNAc
# How it was run: as §1
# [9] = target: GlcNAc(b1-4)[GlcNAc(b1-6)]GalNAc
# How it was run: as §1
# GlcNAc(b1-6)GalNAc = target: GlcNAc(b1-6)GalNAc
# How it was run: as §1
# Kdn(a2-3)Gal(b1-3)GlcNAc = target: Kdn(a2-3)Gal(b1-3)GlcNAc
# How it was run: as §1
# Kdn(a2-3)Gal(b1-4)GlcNAc = target: Kdn(a2-3)Gal(b1-4)GlcNAc
# How it was run: as §1
# [10] = target: Man(a1-2)Man(a1-2)Man(a1-3)Man
# How it was run: as §1
# [11] = target: Man(a1-2)Man(a1-2)Man(a1-6)[Man(a1-3)]Man
# How it was run: as §1
# Man(a1-2)Man(a1-3)Man = target: Man(a1-2)Man(a1-3)Man
# How it was run: as §1
# [12] = target: Man(a1-2)Man(a1-3)[Man(a1-2)Man(a1-6)]Man
# How it was run: as §1
# [13] = target: Man(a1-2)Man(a1-3)[Man(a1-2)Man(a1-6)]Man(a1-6)[Man(a1-2)Man(a1-2)Man(a1-3)]Man(b1-4)GlcNAc(b1-4)GlcNAc
# How it was run: as §1
# [14] = target: Man(a1-2)Man(a1-3)[Man(a1-2)Man(a1-6)]Man(a1-6)[Man(a1-3)[Man(a1-6)]Man(a1-6)]Man(b1-4)GlcNAc(b1-4)GlcNAc
# How it was run: as §1
# [15] = target: Man(a1-2)Man(a1-3)[Man(a1-6)]Man(a1-6)[Man(a1-2)Man(a1-3)]Man(b1-4)GlcNAc(b1-4)GlcNAc
# How it was run: as §1
# [16] = target: Man(a1-2)Man(a1-6)[Man(a1-3)]Man(a1-6)[Man(a1-2)Man(a1-2)Man(a1-3)]Man(b1-4)GlcNAc(b1-4)GlcNAc
# How it was run: as §1
# Man(a1-3)[Man(a1-6)]Man = target: Man(a1-3)[Man(a1-6)]Man
# How it was run: as §1
# [17] = target: Man(a1-3)[Man(a1-6)]Man(a1-6)[Man(a1-3)]Man(b1-4)GlcNAc(b1-4)GlcNAc
# How it was run: as §1
# Neu5Ac(a2-3)Gal = target: Neu5Ac(a2-3)Gal
# How it was run: as §1
# [18] = target: Neu5Ac(a2-3)Gal(b1-3)GalNAc
# How it was run: as §1
# [19] = target: Neu5Ac(a2-3)Gal(b1-3)GalNAc6S
# How it was run: as §1
binder,measurement,setting,value
"IRP60A (Homo sapiens), Q9UGN4 (protein) MWLPWALLLLWVPGCFALSKCRTVAGPVGGSLSVQCPYEKEHRTLNKYWCRPPQIFLCDKIVETKGSAGKRNGRVSIRDSPANLSFTVTLENLTEEDAGTYWCGVDTPWLRDFHDPVVEVEVSVFPASTSMTPASITAAKTSTITTAFPPVSSTTLFAVGATHSASIQEETEEVVNSQLPLLLSLLALLLLLLVGASLLAWRMFQKWIKAGDHSELSQNPKQAATQSELHYANLELLMWPLQEKPAPPREVEVEYSTVASPREELHYASVVFDSNTNRIAAQRPREEEPDSDYSVIRKT",glycan array binding signal (z-score),[1],-0.276
same,glycan array binding signal (z-score),Gal3S(b1-3)GalNAc,0.015
same,glycan array binding signal (z-score),Gal3S(b1-3)GlcNAc,0.064
same,glycan array binding signal (z-score),[2],-0.372
same,glycan array binding signal (z-score),Gal3S(b1-4)Glc,-0.329
same,glycan array binding signal (z-score),Gal3S(b1-4)Glc6S,-0.172
same,glycan array binding signal (z-score),Gal3S(b1-4)GlcNAc,0.268
same,glycan array binding signal (z-score),Gal4S(b1-4)GlcNAc,0.155
same,glycan array binding signal (z-score),Gal6S(b1-4)Glc,-0.24
same,glycan array binding signal (z-score),Gal6S(b1-4)Glc6S,0
same,glycan array binding signal (z-score),GalNAc(a1-3)Gal,6.44
same,glycan array binding signal (z-score),GalNAc(a1-3)GalNAc,0.291
same,glycan array binding signal (z-score),GalNAc(b1-3)GalNAc,0.467
same,glycan array binding signal (z-score),GalNAc(b1-4)GlcNAc,0.319
same,glycan array binding signal (z-score),Glc(a1-4)Glc,-0.316
same,glycan array binding signal (z-score),Glc(b1-4)Glc,-0.35
same,glycan array binding signal (z-score),Glc(b1-6)Glc,-0.124
same,glycan array binding signal (z-score),[3],-0.288
same,glycan array binding signal (z-score),GlcNAc(b1-3)Gal,-0.069
same,glycan array binding signal (z-score),[4],-0.209
same,glycan array binding signal (z-score),GlcNAc(b1-3)Gal(b1-4)Glc,-0.264
same,glycan array binding signal (z-score),[5],-0.227
same,glycan array binding signal (z-score),[6],0.066
same,glycan array binding signal (z-score),[7],-0.369
same,glycan array binding signal (z-score),[8],-0.398
same,glycan array binding signal (z-score),[9],-0.193
same,glycan array binding signal (z-score),GlcNAc(b1-6)GalNAc,0.154
same,glycan array binding signal (z-score),Kdn(a2-3)Gal(b1-3)GlcNAc,-0.249
same,glycan array binding signal (z-score),Kdn(a2-3)Gal(b1-4)GlcNAc,-0.156
same,glycan array binding signal (z-score),[10],-0.241
same,glycan array binding signal (z-score),[11],-0.415
same,glycan array binding signal (z-score),Man(a1-2)Man(a1-3)Man,-0.421
same,glycan array binding signal (z-score),[12],-0.431
same,glycan array binding signal (z-score),[13],-0.267
same,glycan array binding signal (z-score),[14],-0.396
same,glycan array binding signal (z-score),[15],-0.327
same,glycan array binding signal (z-score),[16],-0.395
same,glycan array binding signal (z-score),Man(a1-3)[Man(a1-6)]Man,8.07
same,glycan array binding signal (z-score),[17],-0.418
same,glycan array binding signal (z-score),Neu5Ac(a2-3)Gal,-0.412
same,glycan array binding signal (z-score),[18],-0.336
same,glycan array binding signal (z-score),[19],-0.304
